Data: PubChem BioAssay AID624417 (National Center for Advancing Translational Sciences (NCATS), 2012)
Values joined by “and” are separate entries in the source; they are usually repeats but may differ in a detail not shown here. Equal values may be shown once. In all, about 410,000 compounds went through this assay and about 6,400 (1.6%) were called active. The inconclusive results got no clear call from the source; some entries with a clear call stand among them for comparison. The call rests on the fitted dose curve; in most records, active means well fitted inhibition curve with a large enough effect; inconclusive means small, poorly fitted or top-dose-only effect; inactive means no such curve, though single readings can be large or run the other way. A potency beside an inconclusive call is a rough fit, not a confirmed value.

Biological target: Glucagon-like peptide 1 receptor (Homo sapiens) (UniProt P43220)
Experiment: qHTS of GLP-1 Receptor Inverse Agonists (Inhibition Mode); further: nearly all actives have a fitted effect of over 55% in size
Details: HEK293 GLP-1R CRE-luciferase, luminescence, 24 h, GLP-1R form is constitutively active; activity change, negative = inhibition: at 38.3 µM (top of the series) unless noted
How it was run: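 Using stably transfected HEK293 (constitutively active GLP-1R, cAMP-luciferase reporter), compounds were incubated 24 hr and luciferase measured by luminescence.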
On the % scale 0 is the no-effect control and ±100 the full control effect; potency means the concentration at half of the fitted maximal effect; tags describe the fitted curve by direction and shape.

Sequence of UniProt P43220 (P43220 whole entry, looked up): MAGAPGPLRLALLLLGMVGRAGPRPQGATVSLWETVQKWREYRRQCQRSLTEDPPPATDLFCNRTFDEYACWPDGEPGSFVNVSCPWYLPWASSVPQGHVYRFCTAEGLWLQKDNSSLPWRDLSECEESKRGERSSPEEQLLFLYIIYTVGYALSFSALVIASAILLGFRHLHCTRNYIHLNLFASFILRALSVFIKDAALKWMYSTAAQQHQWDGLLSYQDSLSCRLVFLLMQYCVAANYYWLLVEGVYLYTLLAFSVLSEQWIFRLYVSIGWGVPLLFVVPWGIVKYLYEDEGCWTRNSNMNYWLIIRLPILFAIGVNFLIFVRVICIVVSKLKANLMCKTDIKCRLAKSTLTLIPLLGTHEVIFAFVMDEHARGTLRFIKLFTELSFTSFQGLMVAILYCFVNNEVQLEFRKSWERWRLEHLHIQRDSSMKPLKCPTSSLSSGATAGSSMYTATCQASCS

Potency, active:
CCCCCC(=O)N1C[C@H](n2cc(COC(=O)c3ccccc3)nn2)[C@@H](O)C[C@@H]1c1ccc(C)cc1 10 µM

Potency, inconclusive:
O=c1c2c(nc3cc(-c4cccc(Cl)c4)[nH]n13)CCC2 2.82 µM [inhibitor, full curve, poor fit]
C/C=C/c1ccc(OCC(O)CN2CCCCCCC2)c(OC)c1 (stereo not given) 11.2 µM [inhibitor, partial curve, poor fit]
CCOc1ccc(NC(=O)CN2C(=O)COc3ccc(S(=O)(=O)N4CCCCC4)cc32)cc1 10 µM [inhibitor, single point]
CCOc1ccccc1N1CCN(C(=O)CCCN2C(=O)c3cccc4cccc(c34)C2=O)CC1 11.2 µM [inhibitor, single point]
CCCSc1nc(NCc2ccco2)c2c3c(sc2n1)COC(C)(CC)C3 (stereo not given) 8.91 µM [inhibitor, partial curve, poor fit]
CC(C)c1ccc(NC(=O)N(CCc2nc3ccccc3[nH]2)C2CCCC2)cc1 7.94 µM [inhibitor, partial curve, poor fit]
Cc1ccc(NS(=O)(=O)c2ccc(NC(=O)N3CCCCC3)cc2)cc1 8.91 µM [inhibitor, single point]
CCN(C(=O)C1CCCN(c2ncnc3c2nc2n3CCCCC2)C1)c1cccc(Cl)c1 (stereo not given) 12.6 µM [inhibitor, single point] and 22.4 µM [inhibitor, single point]
Cc1cc(NC(=O)c2ccc(NC(=O)CCS(=O)(=O)c3cccs3)cc2)ccc1Br 10 µM [inhibitor, partial curve, poor fit]
CC(=O)C1=C(C)NC(SCC(=O)c2ccc(F)cc2)=C(C#N)C1CC(C)C (stereo not given) 8.91 µM [inhibitor, single point]
COc1cc2ccccc2cc1C(=O)N(CCN(C)C)c1nc2c(F)cc(F)cc2s1 1.58 µM [inhibitor, partial curve, poor fit]
CC(Oc1ccc2ccccc2c1)C(=O)NNC(=O)Nc1ccccc1F (stereo not given) 8.91 µM [inhibitor, partial curve, poor fit]
Cc1onc(-c2c(F)cccc2Cl)c1C(=O)Nc1nnc(C(F)(F)F)s1 0.501 µM [inhibitor, full curve, poor fit]
CC(C)CC(N)c1csc(Nc2cnccn2)n1 (stereo not given) 10 µM [inhibitor, single point]
CC(C)(C)[C@@H]1C=C(C(=O)N2CCN(Cc3ccc4c(c3)OCO4)CC2)O[C@H](OCc2ccc(CO)cc2)C1 10 µM [inhibitor, partial curve, poor fit]
CC1(C)CC(=O)C=C(c2ccc(-c3cnn(Cc4ccccc4)c3)cc2)C1=O 31.6 µM [inhibitor, partial curve, poor fit]
COCCN(C(=O)C1CC1)c1nnc(-c2ccc(C)cc2)s1 12.6 µM [inhibitor, single point]
O=C(Nc1ccc(C(F)(F)F)cc1)C(Cc1ccccc1)n1cccc1 (stereo not given) 28.2 µM [inhibitor, single point]
CC(C)C[C@H](NC(=O)c1nc[nH]c1C(=O)NC1CCN(C(=O)OC(C)(C)C)CC1)C(=O)OC(C)(C)C 28.2 µM [inhibitor, single point]
CC(C)CNC(=S)NC(=O)c1ccc(F)cc1 31.6 µM [inhibitor, single point]
CCSc1ccc([C@@H]2[C@H]3C(=O)N(CC)C(=O)[C@H]3[C@]3(C(=O)OC)CCCCN23)cc1OC 28.2 µM [inhibitor, single point]
COc1ccc(C2=NS(=O)(=O)N(C)C(C(=O)Nc3ccc4c(c3)OCO4)=C2)cc1 28.2 µM [inhibitor, single point]
C=C(C)c1cccc(C(C)(C)NC(=O)N2CCN(C/C=C/c3ccccc3)CC2)c1 12.6 µM [inhibitor, partial curve, poor fit]
CN(CC(=O)Nc1cccc(F)c1)C(=O)c1ccc2c(c1)CC(c1ccccc1)OC2=O (stereo not given) 5.62 µM [inhibitor, partial curve, poor fit]
CSc1ccc(CN2CCC(C)(Oc3ccc4ccccc4c3)C2)cc1 (stereo not given) 12.6 µM [inhibitor, single point]
Cc1nc(N2CCN(C(=O)c3ccco3)CC2)c2c3c(sc2n1)CCCC3 6.31 µM [inhibitor, partial curve, poor fit]
CCOC(=O)[C@@H]1[C@H]2COc3ccc(Br)cc3[C@@H]2N2C(=O)N(c3cccc(Cl)c3)C(=O)[C@]12C 10 µM [inhibitor, partial curve, poor fit]

Activity change, negative = inhibition, inactive:
Cc1ccc(C2C(C(=O)c3cc4ccccc4o3)=C(O)C(=O)N2CCN2CCOCC2)cc1 (stereo not given) 13.8%
CN(Cc1ccccc1)c1ncnc2c1cnn2-c1ccccc1 0%
Cc1ccc(O)c(NC(=O)c2onc(C)c2Cl)c1 22.2%
CC(=O)c1ccc(NC(=O)COCc2cc(-c3ccc(F)cc3)on2)cc1 2.61%
Cc1cc2c(cc3c(SCc4ccccc4Cl)nnc(C)n32)o1 0.27%
Cc1c(CCNC(=O)C(C)(C)C)sc2nc(-c3ccc(F)cc3)nn12 1.13%
CC(=O)Nc1cccc(C(=O)NCc2ccc3c(c2)CCN3C(=O)c2ccc(F)cc2)c1 5.48%
COc1cc(C(C)=O)ccc1COc1ccc(C(=O)OCC(=O)NC2CCS(=O)(=O)C2)cc1OC (stereo not given) 77.3%
COc1cc(OC)c(C(=O)NCC2CCCO2)cc1OC (stereo not given) -20.4% [at 0.307 µM]
O=C(O)c1cc(-c2ccc(Cl)s2)nc2ccccc12 -24.7%
O=C(NCCCN1CCN(c2ccccc2F)CC1)c1ccc2nc(N3CCCCC3)sc2c1 -24.3%
Cc1cc(C)n(-c2nc(C)c(C)c(=O)n2CC(=O)Nc2ccc(OC(F)(F)F)cc2)n1 -1.02%
